Data taken from PubChem BioAssay AID1745845 (National Center for Advancing Translational Sciences (NCATS), 2022).
The campaign covered roughly 360,000 compounds. About 2,600 (0.72%) were called active. This list was built around the results that the source calls inconclusive (neither active nor inactive); the mix of calls is not that of the screen. The call rests on the fitted dose curve; in most records, active means well fitted inhibition curve with a large enough effect; inconclusive means small, poorly fitted or top-dose-only effect; inactive means no such curve, though single readings can be large or run the other way. Where the call is inconclusive, the potency comes from a doubtful curve fit.

Test: Primary qHTS for Inhibitors of ATXN expression; further: nearly all actives have a fitted effect of over 55% in size
Details: HEK-293 ATXN2-luciferase reporter, luminescence, 24 h; activity change, negative = inhibition: at 57 µM (top of the series)
Summary of the method: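 ATXN2-luciferase reporter cells (luciferase flanked by upstream and downstream ATXN2 gene portions) were treated 24 h at 37 °C with compounds at up to 57 uM. SteadyGlo luminescence gave expression; GF-AFC fluorescence gave viability.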
On the % scale 0 is the no-effect control and ±100 the full control effect; potency means the concentration at half of the fitted maximal effect; tags describe the fitted curve by direction and shape.

Activity change, negative = inhibition, inactive:
O=c1[nH]n2c(=O)c3c([nH]c2c1N=Nc1cccc(Cl)c1)CCC3 -6.03%
CCOC(=O)c1nnc(-c2ccc(C)cc2)nc1Sc1cccc(Cl)c1 -16.7%
O=C(c1ccc(Cl)cc1Cl)C1(n2cncn2)Oc2ccccc2C1O (stereo unspecified) -4.62%
CCN1CCN(CC(=O)Nc2ccc(-c3cccc4c(=O)cc(N5CCOCC5)oc34)c3sc4ccccc4c23)CC1 -14.7%
O=C(NC(=S)Nc1ccc(N2CCCCC2)c(Cl)c1)c1cccs1 9.17%
CCOP(=O)(OCC)c1nc(/C=C/c2ccccc2)oc1NCc1ccccc1 22.8%
CCc1ccc2[nH]c(=O)c(CN(Cc3ccco3)C(=S)NCC3CCCO3)cc2c1 (stereo unspecified) -25.3%
C[C@]12c3[nH]c4ccccc4c3CCN1C(=O)C(CC(=O)NCc1cccc(C(F)(F)F)c1)C[C@@H]2C(=O)N1CCCCC1 (stereo partly specified) 0%
CCCCOc1ccc(C(=O)NCC(c2ccc(Cl)cc2)N2CCOCC2)cc1 (stereo unspecified) -25.1%
O=C(N/N=C/c1ccco1)c1cccc([N+](=O)[O-])c1 6.32%
O=C(/C=C/c1ccc[nH]1)c1ccc(F)cc1 12.1%
O=C(O)c1cccc2c1C(=O)c1cc([N+](=O)[O-])ccc1-2 -12.9%
O=C(NCCc1ccc(Cl)cc1)c1cc(-c2ccccc2)n[nH]1 -29.2%
Cc1cccc(NC(=O)c2ccc(NCC3CCCO3)c([N+](=O)[O-])c2)n1 (stereo unspecified) 27.9%
COc1ccc(S(=O)(=O)N(C)C[C@@H]2Oc3c(NS(C)(=O)=O)cccc3C(=O)N([C@@H](C)CO)C[C@H]2C)cc1 -0.303%
Cc1ccccc1C(=O)OCn1nnc2ccccc2c1=O 8.53%
O=C(Nc1nc2cccc(-c3ccc(CN4CCS(=O)(=O)CC4)cc3)n2n1)C1CC1 292%
Cc1ccc(NC(=O)c2cccc(OCc3c(C)noc3C)c2)c(C)c1 0.609%
Cc1ccc(C(O)(C(=O)NNS(=O)(=O)c2ccc(C)cc2)c2ccc(C)cc2)cc1 3.73%
CC(CCC(=O)O)C1CCC2C3CC(O)C4CC(O)CC[C@]4(C)C3CCC12C (stereo partly specified) 2.39%
CCOC(=O)c1cnc2c(ccc3ccccc32)c1Nc1ccc(OC)c(OC)c1 -12.1%
CCOc1ccc(NC(=O)c2ccc(-c3cccc(Cl)c3C)o2)cc1 0.0095%
Cc1cccc(-n2ncc3c2CCCC3NC(=O)C2(C(N)=O)CC2)c1C (stereo unspecified) -22.6%

Potency, active:
COc1ccc(OC)c(-c2nnc3ccc(-c4ccc(OC)c(O[C@@H]5CCOC5)c4)nn23)c1 27.3 µM
O=C(Nc1ccc(N2CCN(c3ncccc3C(F)(F)F)CC2)nc1)c1cccs1 33.6 µM
CSc1cccc(NC(=S)N(CCCN2CCCC2)Cc2cccn2Cc2ccc(Cl)cc2)c1 14.1 µM
CCN(CC)c1ccc(C(=C2C=CC(=[N+](CC)CC)C=C2)c2ccccc2)cc1 0.355 µM
CCN1CCN(CCNC(=O)c2ccc(/C=C3/Sc4ccccc4N(Cc4cccc(Cl)c4)C3=O)cc2)CC1 25.1 µM
Cc1[nH]c2ccccc2c(=O)c1C(=O)/C=C/c1ccccc1 11.2 µM

Potency, inconclusive:
COc1ccc(Cl)cc1C(=O)N(Cc1nc(-c2cccc(C)c2)no1)C(C)C 31.6 µM [inhibitor, single point]
Cc1cc(C)cc(N=Cc2ccc([N+](=O)[O-])s2)c1 28.2 µM [inhibitor, partial curve, poor fit]
Cc1ccc(NC(=O)Cn2c(O)c(N=NC(=O)c3cc4ccccc4cc3O)c3ccccc32)cc1 7.94 µM [inhibitor, partial curve, poor fit]
COCCCNC1=C(Cl)C(=O)c2ccccc2C1=O 31.6 µM [inhibitor, partial curve, poor fit]
CCOc1cccc2cc(-c3nnc(NCc4ccc5c(c4)OCO5)s3)c(=O)oc12 14.1 µM [inhibitor, partial curve]
O=C1N[C@@H](Cc2ccccc2)COC(=O)[C@H](Cc2ccc(F)cc2)C/C=C\C[C@H]1CC(=O)N(CCO)Cc1ccccc1 39.8 µM [inhibitor, single point]
C[C@H]1CN([C@@H](C)CO)C(=O)c2cccc(NC(=O)Nc3ccc(C(F)(F)F)cc3)c2O[C@@H]1CN(C)S(=O)(=O)c1ccc(Cl)cc1 28.2 µM [inhibitor, single point]
O=C(NCc1ccccc1Cl)c1cccc2c1C(=O)c1ccc(-c3ccc(OC(F)(F)F)cc3)cc1S2(=O)=O 28.2 µM [inhibitor, single point]
COCCN=C1N[C@@H](c2cccc(C(F)(F)F)c2)C(C(=O)OC)=C(C)N1Cc1ccccc1 35.5 µM [inhibitor, single point]
CC(=O)c1cccc(-c2cnc3c(NC=O)cc(-c4ccc(F)cc4)cn23)c1 39.8 µM [inhibitor, single point]
CN(Cc1ccccc1)C(=O)c1ccc(Nc2nc(C(N)Cc3ccc(C(F)(F)F)cc3)cs2)nc1 (stereo unspecified) 22.4 µM [inhibitor, single point]
COc1ccc(C2CC(C(F)(F)F)n3nc(C(=O)NCc4c(C)nn(C)c4C)c(Cl)c3N2)cc1 (stereo unspecified) 39.8 µM [inhibitor, single point]
COc1ccccc1NC(=O)CCc1nc2sc3c(c2c(=O)[nH]1)CCCC3 35.5 µM [inhibitor, single point]
CCN(CC)CCCN(C(=O)c1ccc(Br)cc1)c1nc(-c2ccc(OC)cc2)cs1 31.6 µM [inhibitor, partial curve, poor fit]
CCOC(=O)c1ccc(N2C(=O)c3n[nH]c(-c4ccco4)c3C2c2ccc(OC)cc2OC)cc1 (stereo unspecified) 39.8 µM [inhibitor, single point]
CC(=O)c1ccc(NC(=O)Nc2ccc3snnc3c2)cc1 39.8 µM [inhibitor, single point]
CC(=O)N(C(C)=O)c1cccc(N(Cc2ccccc2)Cc2ccccc2)c1 28.2 µM [inhibitor, single point]
COc1cccc(C(=O)Nc2ccc(Oc3cccc(C(F)(F)F)c3)nc2)c1 14.1 µM [inhibitor, partial curve, poor fit]
CCN(CC)S(=O)(=O)c1ccc(/C=C/C(=O)Nc2ccc(Br)cc2F)cc1 0.891 µM [inhibitor, partial curve, poor fit]
O=C(COc1cccc(Br)c1)Nc1ccc(Cl)c(S(=O)(=O)N2CCOCC2)c1 35.5 µM [inhibitor, single point]
Oc1ccc2ccccc2c1SSc1c(O)ccc2ccccc12 38.5 µM [inhibitor, single point]
Clc1ccc(Cn2c(CN3CCCC3)nc3ccccc32)cc1 17.8 µM [inhibitor, partial curve, poor fit]
NC(COCc1ccccc1)c1csc(Nc2ccc(C(F)(F)F)cn2)n1 (stereo unspecified) 39.8 µM [inhibitor, single point]
O=C(NC1CCN(Cc2ccc3ccccc3c2)CC1)c1ccccc1 12.6 µM [inhibitor, partial curve, poor fit]
O=C(CN1C(=O)C2CC=CCC2C1=O)N1CCN(c2ccc([N+](=O)[O-])cc2)CC1 (stereo unspecified) 7.08 µM [inhibitor, partial curve, poor fit]
CC(C)(C)c1nn(-c2ccccc2)c2[nH]c(=O)c(CNCc3ccc4c(c3)OCO4)cc12 25.1 µM [inhibitor, single point]
COc1cnc(-c2ccccn2)nc1Sc1c(Cl)cccc1Cl 31.6 µM [inhibitor, single point]
O=C(CCl)Nc1ccc(Oc2cnc3ccccc3n2)cc1 39.8 µM [inhibitor, single point]
CC(Oc1ccc(Cl)cc1Cl)c1nc(-c2ccc(NC(=O)c3ccncc3)cc2)no1 (stereo unspecified) 22.4 µM [inhibitor, partial curve, poor fit]
CCOC(=O)c1nn(-c2ccc3c(c2)CCN3C(C)=O)cc1O 39.8 µM [inhibitor, single point]
Cc1cc(C)c2nc(/N=C(\N)NC(=O)Nc3ccccc3)nc(C)c2c1 20 µM [inhibitor, partial curve, poor fit]
COc1ccc(C(=O)NCCSc2c(C)[nH]c3ccccc23)cc1 22.4 µM [inhibitor, single point]
CN(C)c1ccc(CC(=O)N2CCCCC2c2cc(C(=O)Nc3ccccc3)no2)cc1 (stereo unspecified) 39.8 µM [inhibitor, single point]
Cc1ccsc1/C=N/Nc1nc2ccccc2[nH]1 39.8 µM [inhibitor, single point]
Cc1ccc(/C=C2/SC(=S)N(CCCC(=O)Nc3cc([N+](=O)[O-])ccc3O)C2=O)cc1 17.8 µM [inhibitor, partial curve, poor fit]
COc1ccc(NC(=O)CC2C(=O)N(c3ccc(Cl)cc3)C(=S)N2CCc2ccncc2)cc1 (stereo unspecified) 25.1 µM [inhibitor, partial curve, poor fit]
CC(=O)Nc1cc(-c2ccc(C(=O)NC3CC3)cc2)cn2c(-c3cccc(C(F)(F)F)c3)cnc12 31.6 µM [inhibitor, single point]
